We go through 6 molecules from patent publication US12723106 (dated 2026).

Experiment [1] concerns the target T1, human IL13 (human, UniProt P35225). As to the kind of experiment: SPR, ExpiCHO expressed. A general note: SPR reads the build-up and loss of mass on a sensor chip optically.
The target in experiment [2] is T1, human IL13. As to the kind of experiment: SPR, HEK293-FS expressed.
The target of experiment [3] is T1, human IL13. Kind of experiment: SPR, ExpiCHO expressed. The source holds these as a separate data set.
The target in experiment [4] is T1, human IL13. As to the kind of experiment: SPR, HEK293-FS expressed. The source holds these as a separate data set.

T1 sequence (P35225 35-146): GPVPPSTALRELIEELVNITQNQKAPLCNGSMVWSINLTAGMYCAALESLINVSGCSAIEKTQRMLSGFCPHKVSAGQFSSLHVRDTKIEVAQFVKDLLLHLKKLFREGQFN

B1: sLC-Tandem-(anti-IL4xanti-IL13)-PCL2-huIgG1, IL13 arm (antibody)
chain 1: QVQLQQSGPELVKPGASVKISCKASGYSFTSYWIHWIKQRPGQGLEWIGMIDPSDGETRLNQRFQGRATLTVDESTSTAYMQLRSPTSEDSAVYYCTRLKEYGNYDSFYFDVWGAGTLVTVSSASTKGPSVFPLAPSSKSTSGGTAALGCLVKDYFPEPVTVSWNSGALTSGVHTFPAVLQSSGLYSLSSVVTVPSSSLGTQTYICNVNHKPSNTKVDKKVEPKSCDKTHTGGGGSGGGGSGGGGSEVQLKESGPGLVAPGGSLSITCTVSGFSLTDSSINWVRQPPGKGLEWLGMIWGDGRIDYADALKSRLSISKDSSKSQVFLEMTSLRTDDTATYYCARDGYFPYAMDFWGQGTSVTVSS[omitted - human IgG1 constant region]
chain 2: DIVLTQSPASLAVSLGQRATISCRASESVDSYGQSYMHWYQQKAGQPPKLLIYLASNLESGVPARFSGSGSRTDFTLTIDPVQAEDAATYYCQQNAEDSRTFGGGTKLEIKRTVAAPSVFIFPPSDEQLKSGTASVVCLLNNFYPREAKVQWKVDNALQSGNSQESVTEQDSKDSTYSLSSTLTLSKADYEKHKVYACEVTHQGLSSPVTKSFNRGEC
In general, Kd refers to the concentration at which binding is half-saturated. A low value points to a tighter complex. Consider B1, for which the Kd in experiment [1] was determined as 0.00633 nM; in experiment [2] it was 0.181 nM.

B2: sLC-Tandem-(anti-IL4xanti-IL13)-ΔPCL1-huIgG1, IL13 arm (antibody)
chain 1: QVQLQQSGPELVKPGASVKISCKASGYSFTSYWIHWIKQRPGQGLEWIGMIDPSDGETRLNQRFQGRATLTVDESTSTAYMQLRSPTSEDSAVYYCTRLKEYGNYDSFYFDVWGAGTLVTVSSASTKGPSVFPLAPSSKSTSGGTAALGCLVKDYFPEPVTVSWNSGALTSGVHTFPAVLQSSGLYSLSSVVTVPSSSLGTQTYICNVNHKPSNTKVDKKVEPKSCDKTHTGGGGSGGGGSGGGGSEVQLKESGPGLVAPGGSLSITCTVSGFSLTDSSINWVRQPPGKGLEWLGMIWGDGRIDYADALKSRLSISKDSSKSQVFLEMTSLRTDDTATYYCARDGYFPYAMDFWGQGTSVTVSS[omitted - human IgG1 constant region]
chain 2: DIVLTQSPASLAVSLGQRATISCRASESVDSYGQSYMHWYQQKAGQPPKLLIYLASNLESGVPARFSGSGSRTDFTLTIDPVQAEDAATYYCQQNAEDSRTFGGGTKLEIKRTVAAPSVFIFPPSDEQLKSGTASVVCLLNNFYPREAKVQWKVDNALQSGNSQESVTEQDSKDSTYSLSSTLTLSKADYEKHKVYACEVTHQGLSSPVTKSFNRGEC
Consider B2, for which the binding result in experiment [3] was “no binding”.

B3: Tandem-(anti-IL4xanti-IL13)-huIgG1, IL13 arm (antibody)
chain 1: QVQLQQSGPELVKPGASVKISCKASGYSFTSYWIHWIKQRPGQGLEWIGMIDPSDGETRLNQRFQGRATLTVDESTSTAYMQLRSPTSEDSAVYYCTRLKEYGNYDSFYFDVWGAGTLVTVSSASTKGPSVFPLAPSSKSTSGGTAALGCLVKDYFPEPVTVSWNSGALTSGVHTFPAVLQSSGLYSLSSVVTVPSSSLGTQTYICNVNHKPSNTKVDKKVEPKSCDKTHTGGGGSGGGGSGGGGSEVQLKESGPGLVAPGGSLSITCTVSGFSLTDSSINWVRQPPGKGLEWLGMIWGDGRIDYADALKSRLSISKDSSKSQVFLEMTSLRTDDTATYYCARDGYFPYAMDFWGQGTSVTVSS[omitted - human IgG1 constant region]
chain 2: DIVLTQSPASLAVSLGQRATISCRASESVDSYGQSYMHWYQQKAGQPPKLLIYLASNLESGVPARFSGSGSRTDFTLTIDPVQAEDAATYYCQQNAEDSRTFGGGTKLEIKRTVAAPSVFIFPPSDEQLKSGTASVVCLLNNFYPREAKVQWKVDNALQSGNSQESVTEQDSKDSTYSLSSTLTLSKADYEKHKVYACEVTHQGLSSPVTKSFNRGEC
Molecule B3 came in with a Kd in experiment [2] of 0.114 nM.

B4: sLC-Tandem-(anti-IL4xanti-IL13)-His8-PCL1-huIgG1 with Furin-KDEL, IL13 arm (antibody)
chain 1: QVQLQQSGPELVKPGASVKISCKASGYSFTSYWIHWIKQRPGQGLEWIGMIDPSDGETRLNQRFQGRATLTVDESTSTAYMQLRSPTSEDSAVYYCTRLKEYGNYDSFYFDVWGAGTLVTVSSASTKGPSVFPLAPSSKSTSGGTAALGCLVKDYFPEPVTVSWNSGALTSGVHTFPAVLQSSGLYSLSSVVTVPSSSLGTQTYICNVNHKPSNTKVDKKVEPKSCDKTHTGGGGSGGGGSGGGGSEVQLKESGPGLVAPGGSLSITCTVSGFSLTDSSINWVRQPPGKGLEWLGMIWGDGRIDYADALKSRLSISKDSSKSQVFLEMTSLRTDDTATYYCARDGYFPYAMDFWGQGTSVTVSS[omitted - human IgG1 constant region]
chain 2: DIVLTQSPASLAVSLGQRATISCRASESVDSYGQSYMHWYQQKAGQPPKLLIYLASNLESGVPARFSGSGSRTDFTLTIDPVQAEDAATYYCQQNAEDSRTFGGGTKLEIKRTVAAPSVFIFPPSDEQLKSGTASVVCLLNNFYPREAKVQWKVDNALQSGNSQESVTEQDSKDSTYSLSSTLTLSKADYEKHKVYACEVTHQGLSSPVTKSFNRGEC
In the case of B4, in experiment [2], the Kd stood at 0.149 nM.

B5: sLC-Tandem-(anti-IL4xanti-IL13)-His8-PCL1-huIgG1 with Furin, IL13 arm (antibody)
chain 1: QVQLQQSGPELVKPGASVKISCKASGYSFTSYWIHWIKQRPGQGLEWIGMIDPSDGETRLNQRFQGRATLTVDESTSTAYMQLRSPTSEDSAVYYCTRLKEYGNYDSFYFDVWGAGTLVTVSSASTKGPSVFPLAPSSKSTSGGTAALGCLVKDYFPEPVTVSWNSGALTSGVHTFPAVLQSSGLYSLSSVVTVPSSSLGTQTYICNVNHKPSNTKVDKKVEPKSCDKTHTGGGGSGGGGSGGGGSEVQLKESGPGLVAPGGSLSITCTVSGFSLTDSSINWVRQPPGKGLEWLGMIWGDGRIDYADALKSRLSISKDSSKSQVFLEMTSLRTDDTATYYCARDGYFPYAMDFWGQGTSVTVSS[omitted - human IgG1 constant region]
chain 2: DIVLTQSPASLAVSLGQRATISCRASESVDSYGQSYMHWYQQKAGQPPKLLIYLASNLESGVPARFSGSGSRTDFTLTIDPVQAEDAATYYCQQNAEDSRTFGGGTKLEIKRTVAAPSVFIFPPSDEQLKSGTASVVCLLNNFYPREAKVQWKVDNALQSGNSQESVTEQDSKDSTYSLSSTLTLSKADYEKHKVYACEVTHQGLSSPVTKSFNRGEC
Consider B5, for which, in experiment [2], the Kd stood at 0.087 nM.

B6: sLC-Tandem-(anti-IL4xanti-IL13)-PCL1-huIgG1, IL13 arm (antibody)
chain 1: QVQLQQSGPELVKPGASVKISCKASGYSFTSYWIHWIKQRPGQGLEWIGMIDPSDGETRLNQRFQGRATLTVDESTSTAYMQLRSPTSEDSAVYYCTRLKEYGNYDSFYFDVWGAGTLVTVSSASTKGPSVFPLAPSSKSTSGGTAALGCLVKDYFPEPVTVSWNSGALTSGVHTFPAVLQSSGLYSLSSVVTVPSSSLGTQTYICNVNHKPSNTKVDKKVEPKSCDKTHTGGGGSGGGGSGGGGSEVQLKESGPGLVAPGGSLSITCTVSGFSLTDSSINWVRQPPGKGLEWLGMIWGDGRIDYADALKSRLSISKDSSKSQVFLEMTSLRTDDTATYYCARDGYFPYAMDFWGQGTSVTVSS[omitted - human IgG1 constant region]
chain 2: DIVLTQSPASLAVSLGQRATISCRASESVDSYGQSYMHWYQQKAGQPPKLLIYLASNLESGVPARFSGSGSRTDFTLTIDPVQAEDAATYYCQQNAEDSRTFGGGTKLEIKRTVAAPSVFIFPPSDEQLKSGTASVVCLLNNFYPREAKVQWKVDNALQSGNSQESVTEQDSKDSTYSLSSTLTLSKADYEKHKVYACEVTHQGLSSPVTKSFNRGEC
Consider B6, for which the binding result in experiment [4] is recorded as “no binding”.
